# Data published in the supplement of paper PMC4604168 (melanoma cell lines).
# This is one part of the list. Single values are uncertain, as repeats are few or missing.
# System: SkMel28
# Experiment: cell count relative to DMSO control; melanoma cells; higher = more viable cells
# Details: library dose: low library concentration; 72 h
# 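Also: cell number obtained by counting DAPI-stained nuclei in high-throughput microscope images with image analysis software, screen run in 1,536-well plates.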
row,Structure (SMILES),cell count [%]
1,"O=C(/C=C/c1cccnc1)NCCCCC1CCN(C(=O)c2ccccc2)CC1 + CN1CCN(c2ccc3nc(-c4c(N)c5c(F)cccc5[nH]c4=O)[nH]c3c2)CC1 [Dovitinib] (first compound 0.01 µM, partner dose 0.1 µM)",76.6
2,"CC1(C)CCC(c2ccc(Cl)cc2)=C(CN2CCN(c3ccc(C(=O)NS(=O)(=O)c4ccc(N[C@H](CCN5CCOCC5)CSc5ccccc5)c(S(=O)(=O)C(F)(F)F)c4)cc3)CC2)C1 + Cn1nnc2c(C(N)=O)ncn2c1=O [temozolomide] (first compound 0.4 µM, partner dose 2 µM)",93.4
3,"O=C(/C=C/c1cccnc1)NCCCCC1CCN(C(=O)c2ccccc2)CC1 + Nc1cccc2c1CN(C1CCC(=O)NC1=O)C2=O [lenalidomide] (first compound 0.01 µM, partner dose 1 µM)",103

# System: SkMel2
# Experiment: as above
# Details: library dose: low library concentration; 72 h
row,Structure (SMILES),cell count [%]
1,"CC1(C)CCC(c2ccc(Cl)cc2)=C(CN2CCN(c3ccc(C(=O)NS(=O)(=O)c4ccc(N[C@H](CCN5CCOCC5)CSc5ccccc5)c(S(=O)(=O)C(F)(F)F)c4)cc3)CC2)C1 + C[C@]1(c2nc3c(C(N)=O)cccc3[nH]2)CCCN1 [Veliparib] (first compound 0.4 µM, partner dose 1.4 µM)",84.7
2,"Cc1ccc(Nc2nccc(N(C)c3ccc4c(C)n(C)nc4c3)n2)cc1S(N)(=O)=O [Pazopanib] + CC(=O)c1c(C)c2cnc(Nc3ccc(N4CCNCC4)cn3)nc2n(C2CCCC2)c1=O [palbociclib] (first compound 0.4 µM, partner dose 0.04 µM)",89.4
3,"O=C(/C=C/c1cccnc1)NCCCCC1CCN(C(=O)c2ccccc2)CC1 + CC(=O)O[C@@]12CO[C@@H]1C[C@H](O)[C@@]1(C)C(=O)[C@H](O)C3=C(C)[C@@H](OC(=O)[C@H](O)[C@@H](NC(=O)OC(C)(C)C)c4ccccc4)C[C@@](O)([C@@H](OC(=O)c4ccccc4)[C@H]21)C3(C)C [Docetaxel] (first compound 0.01 µM, partner dose 0.0001 µM)",29.1
4,"O=C(/C=C/c1cccnc1)NCCCCC1CCN(C(=O)c2ccccc2)CC1 + COc1ccc(C2=N[C@@H](c3ccc(Cl)cc3)[C@@H](c3ccc(Cl)cc3)N2C(=O)N2CCNC(=O)C2)c(OC(C)C)c1 [Nutlin-3] (first compound 0.01 µM, partner dose 0.1 µM)",46.5
5,"O=C(/C=C/c1cccnc1)NCCCCC1CCN(C(=O)c2ccccc2)CC1 + COc1ccc(Cl)c(Nc2nc3ccccc3nc2NS(=O)(=O)c2cccc(NC(=O)C(C)(C)N)c2)c1 [XL147] (first compound 0.01 µM, partner dose 0.8 µM)",22
6,"O=C(/C=C/c1cccnc1)NCCCCC1CCN(C(=O)c2ccccc2)CC1 + C[C@]1(O)C[C@@H](c2nc(-c3ccc4ccc(-c5ccccc5)nc4c3)c3c(N)nccn32)C1 [OSI906] (first compound 0.01 µM, partner dose 0.4 µM)",37.8
7,"O=C(/C=C/c1cccnc1)NCCCCC1CCN(C(=O)c2ccccc2)CC1 + C#Cc1cccc(Nc2ncnc3cc(OCCOC)c(OCCOC)cc23)c1 [erlotinib] (first compound 0.01 µM, partner dose 0.8 µM)",34.4
8,"O=C(/C=C/c1cccnc1)NCCCCC1CCN(C(=O)c2ccccc2)CC1 + Cn1cnc2c(F)c(Nc3ccc(Br)cc3Cl)c(C(=O)NOCCO)cc21 [selumetinib] (first compound 0.01 µM, partner dose 0.015 µM)",60.1
9,"O=C(/C=C/c1cccnc1)NCCCCC1CCN(C(=O)c2ccccc2)CC1 + Cc1cn(-c2cc(NC(=O)c3ccc(C)c(Nc4nccc(-c5cccnc5)n4)c3)cc(C(F)(F)F)c2)cn1 [nilotinib] (first compound 0.01 µM, partner dose 0.2 µM)",9.6
10,"Cc1ccc(Nc2nccc(N(C)c3ccc4c(C)n(C)nc4c3)n2)cc1S(N)(=O)=O [Pazopanib] + NC(=O)c1ccc(N(C(N)=O)c2c(F)cccc2F)nc1-c1ccc(F)cc1F [VX702] (first compound 0.4 µM, partner dose 0.4 µM)",112
11,"Cc1ccc(Nc2nccc(N(C)c3ccc4c(C)n(C)nc4c3)n2)cc1S(N)(=O)=O [Pazopanib] + O=C(O)c1ccc(-c2c[nH]c3ncc(-c4ccccc4)cc23)cc1C1CCCC1 [GSK650394] (first compound 0.4 µM, partner dose 0.16 µM)",95.3
12,"CC1(C)CCC(c2ccc(Cl)cc2)=C(CN2CCN(c3ccc(C(=O)NS(=O)(=O)c4ccc(N[C@H](CCN5CCOCC5)CSc5ccccc5)c(S(=O)(=O)C(F)(F)F)c4)cc3)CC2)C1 + Nc1nc(F)nc2c1ncn2[C@@H]1O[C@H](CO)[C@@H](O)[C@@H]1O [fludarabine] (first compound 0.4 µM, partner dose 0.2 µM)",2.34
13,"Cc1ccc(Nc2nccc(N(C)c3ccc4c(C)n(C)nc4c3)n2)cc1S(N)(=O)=O [Pazopanib] + Cc1nc(Nc2ncc(C(=O)Nc3c(C)cccc3Cl)s2)cc(N2CCN(CCO)CC2)n1 [dasatanib] (first compound 0.4 µM, partner dose 0.004 µM)",97.4
14,"CC1(C)CCC(c2ccc(Cl)cc2)=C(CN2CCN(c3ccc(C(=O)NS(=O)(=O)c4ccc(N[C@H](CCN5CCOCC5)CSc5ccccc5)c(S(=O)(=O)C(F)(F)F)c4)cc3)CC2)C1 + Cn1c(Nc2ccc(C(F)(F)F)cc2)nc2cc(Oc3ccnc(-c4ncc(C(F)(F)F)[nH]4)c3)ccc21 [CHIR265] (first compound 0.4 µM, partner dose 0.08 µM)",59.2
15,"CC1(C)CCC(c2ccc(Cl)cc2)=C(CN2CCN(c3ccc(C(=O)NS(=O)(=O)c4ccc(N[C@H](CCN5CCOCC5)CSc5ccccc5)c(S(=O)(=O)C(F)(F)F)c4)cc3)CC2)C1 + C=C(c1ccc(C(=O)O)cc1)c1cc2c(cc1C)C(C)(C)CCC2(C)C [Bexarotene] (first compound 0.4 µM, partner dose 2 µM)",79.6
16,"CC1(C)CCC(c2ccc(Cl)cc2)=C(CN2CCN(c3ccc(C(=O)NS(=O)(=O)c4ccc(N[C@H](CCN5CCOCC5)CSc5ccccc5)c(S(=O)(=O)C(F)(F)F)c4)cc3)CC2)C1 + Cc1cn(-c2cc(NC(=O)c3ccc(C)c(Nc4nccc(-c5cccnc5)n4)c3)cc(C(F)(F)F)c2)cn1 [nilotinib] (first compound 0.4 µM, partner dose 0.2 µM)",85.6
17,"Cc1ccc(Nc2nccc(N(C)c3ccc4c(C)n(C)nc4c3)n2)cc1S(N)(=O)=O [Pazopanib] + Cn1nnc2c(C(N)=O)ncn2c1=O [temozolomide] (first compound 0.4 µM, partner dose 2 µM)",106
18,"CC1(C)CCC(c2ccc(Cl)cc2)=C(CN2CCN(c3ccc(C(=O)NS(=O)(=O)c4ccc(N[C@H](CCN5CCOCC5)CSc5ccccc5)c(S(=O)(=O)C(F)(F)F)c4)cc3)CC2)C1 + COc1ccc(C2=N[C@@H](c3ccc(Cl)cc3)[C@@H](c3ccc(Cl)cc3)N2C(=O)N2CCNC(=O)C2)c(OC(C)C)c1 [Nutlin-3] (first compound 0.4 µM, partner dose 0.1 µM)",94
19,"CC1(C)CCC(c2ccc(Cl)cc2)=C(CN2CCN(c3ccc(C(=O)NS(=O)(=O)c4ccc(N[C@H](CCN5CCOCC5)CSc5ccccc5)c(S(=O)(=O)C(F)(F)F)c4)cc3)CC2)C1 + C=CCNC1=C2C[C@@H](C)C[C@H](OC)[C@H](O)[C@@H](C)/C=C(\C)[C@H](OC(N)=O)[C@@H](OC)/C=C\C=C(/C)C(=O)NC(=CC1=O)C2=O [Tanespimycin] (first compound 0.4 µM, partner dose 0.002 µM)",88
20,"CC1(C)CCC(c2ccc(Cl)cc2)=C(CN2CCN(c3ccc(C(=O)NS(=O)(=O)c4ccc(N[C@H](CCN5CCOCC5)CSc5ccccc5)c(S(=O)(=O)C(F)(F)F)c4)cc3)CC2)C1 + CCCS(=O)(=O)Nc1ccc(F)c(C(=O)c2c[nH]c3ncc(Cl)cc23)c1F [PLX4720] (first compound 0.4 µM, partner dose 0.08 µM)",85.2
21,"Cc1ccc(Nc2nccc(N(C)c3ccc4c(C)n(C)nc4c3)n2)cc1S(N)(=O)=O [Pazopanib] + C=CCn1c(=O)c2cnc(Nc3ccc(N4CCN(C)CC4)cc3)nc2n1-c1cccc(C(C)(C)O)n1 [MK1775] (first compound 0.4 µM, partner dose 0.02 µM)",97.6
22,"O=C(/C=C/c1cccnc1)NCCCCC1CCN(C(=O)c2ccccc2)CC1 + Nc1nc(F)nc2c1ncn2[C@@H]1O[C@H](CO)[C@@H](O)[C@@H]1O [fludarabine] (first compound 0.01 µM, partner dose 0.2 µM)",11.3
23,"Cc1ccc(Nc2nccc(N(C)c3ccc4c(C)n(C)nc4c3)n2)cc1S(N)(=O)=O [Pazopanib] + Nc1cccc2c1CN(C1CCC(=O)NC1=O)C2=O [lenalidomide] (first compound 0.4 µM, partner dose 1 µM)",96
24,"Cc1ccc(Nc2nccc(N(C)c3ccc4c(C)n(C)nc4c3)n2)cc1S(N)(=O)=O [Pazopanib] + COC(=O)c1sccc1S(=O)(=O)Nc1ccc(Nc2ccccc2)cc1OC [GSK0660] (first compound 0.4 µM, partner dose 1 µM)",93.7
25,"O=C(/C=C/c1cccnc1)NCCCCC1CCN(C(=O)c2ccccc2)CC1 + CN1CCN(c2ccc3nc(-c4c(N)c5c(F)cccc5[nH]c4=O)[nH]c3c2)CC1 [Dovitinib] (first compound 0.01 µM, partner dose 0.1 µM)",52.1
26,"O=C(/C=C/c1cccnc1)NCCCCC1CCN(C(=O)c2ccccc2)CC1 + Nc1cccc2c1CN(C1CCC(=O)NC1=O)C2=O [lenalidomide] (first compound 0.01 µM, partner dose 1 µM)",33.5
